Reference: publication PMC12752501
These are yes or no findings as the source states them, for the method shown. In cells and extracts the contact can be indirect. Some binding calls cover weakened binding; strength is not graded here. Tags and fused reporters may be left off the sequences shown.

Sequences of proteins named here, by UniProt entry; tags and fusion partners are left off. Residues count along the entry.
UniProt Q7Z7M0, residues 28-2845: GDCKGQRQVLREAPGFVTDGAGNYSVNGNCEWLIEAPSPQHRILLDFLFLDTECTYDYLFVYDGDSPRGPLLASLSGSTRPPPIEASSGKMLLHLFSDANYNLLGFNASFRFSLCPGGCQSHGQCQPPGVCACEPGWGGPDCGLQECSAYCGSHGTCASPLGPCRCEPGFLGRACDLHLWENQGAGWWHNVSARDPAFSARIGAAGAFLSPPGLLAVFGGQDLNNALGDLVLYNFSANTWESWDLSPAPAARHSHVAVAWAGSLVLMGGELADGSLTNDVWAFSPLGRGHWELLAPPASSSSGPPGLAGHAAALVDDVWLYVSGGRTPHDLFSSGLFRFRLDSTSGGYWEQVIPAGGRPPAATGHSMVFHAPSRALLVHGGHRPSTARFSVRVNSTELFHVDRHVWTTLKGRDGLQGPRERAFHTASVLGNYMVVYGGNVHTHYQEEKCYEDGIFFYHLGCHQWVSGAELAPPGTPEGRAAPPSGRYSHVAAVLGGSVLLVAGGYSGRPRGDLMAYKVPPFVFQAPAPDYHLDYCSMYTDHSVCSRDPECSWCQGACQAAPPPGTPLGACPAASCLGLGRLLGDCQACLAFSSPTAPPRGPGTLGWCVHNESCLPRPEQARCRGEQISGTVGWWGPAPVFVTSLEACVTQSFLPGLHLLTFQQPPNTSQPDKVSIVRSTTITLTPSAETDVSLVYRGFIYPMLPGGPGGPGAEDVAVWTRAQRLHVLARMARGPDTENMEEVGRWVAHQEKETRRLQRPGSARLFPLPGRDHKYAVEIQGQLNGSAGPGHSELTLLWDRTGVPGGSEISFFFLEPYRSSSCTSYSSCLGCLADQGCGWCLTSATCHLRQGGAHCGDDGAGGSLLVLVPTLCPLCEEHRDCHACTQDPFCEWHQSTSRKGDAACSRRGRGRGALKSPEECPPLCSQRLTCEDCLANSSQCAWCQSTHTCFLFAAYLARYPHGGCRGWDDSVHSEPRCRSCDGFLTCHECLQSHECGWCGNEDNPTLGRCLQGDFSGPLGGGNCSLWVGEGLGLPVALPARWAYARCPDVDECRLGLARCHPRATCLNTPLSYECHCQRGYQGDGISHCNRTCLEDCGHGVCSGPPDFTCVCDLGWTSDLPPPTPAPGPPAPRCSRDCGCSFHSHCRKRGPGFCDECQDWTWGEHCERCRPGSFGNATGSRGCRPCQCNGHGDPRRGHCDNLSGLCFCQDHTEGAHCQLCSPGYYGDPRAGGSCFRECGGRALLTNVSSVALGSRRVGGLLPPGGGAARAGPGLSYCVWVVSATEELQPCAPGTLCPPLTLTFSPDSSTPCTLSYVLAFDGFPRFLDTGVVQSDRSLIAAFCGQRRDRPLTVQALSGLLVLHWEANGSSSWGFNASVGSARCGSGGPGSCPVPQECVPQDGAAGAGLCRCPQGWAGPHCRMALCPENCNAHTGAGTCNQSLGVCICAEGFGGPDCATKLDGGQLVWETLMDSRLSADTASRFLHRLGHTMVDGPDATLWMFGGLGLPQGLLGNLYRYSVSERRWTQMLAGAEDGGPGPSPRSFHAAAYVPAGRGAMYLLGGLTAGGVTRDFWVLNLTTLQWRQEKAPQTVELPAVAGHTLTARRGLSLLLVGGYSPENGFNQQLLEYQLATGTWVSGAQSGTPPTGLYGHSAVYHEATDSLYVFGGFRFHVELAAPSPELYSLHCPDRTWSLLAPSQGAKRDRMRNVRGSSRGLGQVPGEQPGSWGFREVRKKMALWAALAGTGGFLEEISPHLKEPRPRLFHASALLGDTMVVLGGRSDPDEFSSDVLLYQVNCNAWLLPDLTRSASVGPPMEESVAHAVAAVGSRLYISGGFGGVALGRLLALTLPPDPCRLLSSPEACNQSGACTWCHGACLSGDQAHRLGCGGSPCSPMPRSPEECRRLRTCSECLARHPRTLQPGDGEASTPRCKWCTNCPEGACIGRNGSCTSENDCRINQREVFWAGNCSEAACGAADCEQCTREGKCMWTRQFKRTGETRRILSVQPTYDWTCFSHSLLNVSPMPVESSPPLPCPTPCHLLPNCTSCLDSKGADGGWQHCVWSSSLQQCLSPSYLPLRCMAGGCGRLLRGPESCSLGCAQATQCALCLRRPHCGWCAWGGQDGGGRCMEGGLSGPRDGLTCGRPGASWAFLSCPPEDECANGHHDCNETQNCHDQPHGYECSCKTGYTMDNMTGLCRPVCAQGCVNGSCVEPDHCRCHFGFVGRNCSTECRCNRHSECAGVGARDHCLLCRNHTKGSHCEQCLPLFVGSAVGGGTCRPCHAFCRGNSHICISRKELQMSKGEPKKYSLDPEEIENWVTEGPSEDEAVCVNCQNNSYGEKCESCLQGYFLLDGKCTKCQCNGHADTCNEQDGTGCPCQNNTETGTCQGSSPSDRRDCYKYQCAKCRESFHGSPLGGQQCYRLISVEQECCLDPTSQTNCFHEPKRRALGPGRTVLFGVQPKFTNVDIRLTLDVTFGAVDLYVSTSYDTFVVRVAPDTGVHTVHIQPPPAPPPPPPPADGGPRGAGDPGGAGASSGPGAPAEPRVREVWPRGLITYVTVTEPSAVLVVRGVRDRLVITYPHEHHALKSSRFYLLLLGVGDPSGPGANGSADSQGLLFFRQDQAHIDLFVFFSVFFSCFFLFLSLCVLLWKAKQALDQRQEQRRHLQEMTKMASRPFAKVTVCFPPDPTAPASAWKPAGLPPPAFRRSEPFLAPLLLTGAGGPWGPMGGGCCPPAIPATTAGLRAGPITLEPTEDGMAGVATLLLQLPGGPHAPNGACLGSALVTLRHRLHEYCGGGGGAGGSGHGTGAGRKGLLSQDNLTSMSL
UniProt Q5VV63, residues 53-1379: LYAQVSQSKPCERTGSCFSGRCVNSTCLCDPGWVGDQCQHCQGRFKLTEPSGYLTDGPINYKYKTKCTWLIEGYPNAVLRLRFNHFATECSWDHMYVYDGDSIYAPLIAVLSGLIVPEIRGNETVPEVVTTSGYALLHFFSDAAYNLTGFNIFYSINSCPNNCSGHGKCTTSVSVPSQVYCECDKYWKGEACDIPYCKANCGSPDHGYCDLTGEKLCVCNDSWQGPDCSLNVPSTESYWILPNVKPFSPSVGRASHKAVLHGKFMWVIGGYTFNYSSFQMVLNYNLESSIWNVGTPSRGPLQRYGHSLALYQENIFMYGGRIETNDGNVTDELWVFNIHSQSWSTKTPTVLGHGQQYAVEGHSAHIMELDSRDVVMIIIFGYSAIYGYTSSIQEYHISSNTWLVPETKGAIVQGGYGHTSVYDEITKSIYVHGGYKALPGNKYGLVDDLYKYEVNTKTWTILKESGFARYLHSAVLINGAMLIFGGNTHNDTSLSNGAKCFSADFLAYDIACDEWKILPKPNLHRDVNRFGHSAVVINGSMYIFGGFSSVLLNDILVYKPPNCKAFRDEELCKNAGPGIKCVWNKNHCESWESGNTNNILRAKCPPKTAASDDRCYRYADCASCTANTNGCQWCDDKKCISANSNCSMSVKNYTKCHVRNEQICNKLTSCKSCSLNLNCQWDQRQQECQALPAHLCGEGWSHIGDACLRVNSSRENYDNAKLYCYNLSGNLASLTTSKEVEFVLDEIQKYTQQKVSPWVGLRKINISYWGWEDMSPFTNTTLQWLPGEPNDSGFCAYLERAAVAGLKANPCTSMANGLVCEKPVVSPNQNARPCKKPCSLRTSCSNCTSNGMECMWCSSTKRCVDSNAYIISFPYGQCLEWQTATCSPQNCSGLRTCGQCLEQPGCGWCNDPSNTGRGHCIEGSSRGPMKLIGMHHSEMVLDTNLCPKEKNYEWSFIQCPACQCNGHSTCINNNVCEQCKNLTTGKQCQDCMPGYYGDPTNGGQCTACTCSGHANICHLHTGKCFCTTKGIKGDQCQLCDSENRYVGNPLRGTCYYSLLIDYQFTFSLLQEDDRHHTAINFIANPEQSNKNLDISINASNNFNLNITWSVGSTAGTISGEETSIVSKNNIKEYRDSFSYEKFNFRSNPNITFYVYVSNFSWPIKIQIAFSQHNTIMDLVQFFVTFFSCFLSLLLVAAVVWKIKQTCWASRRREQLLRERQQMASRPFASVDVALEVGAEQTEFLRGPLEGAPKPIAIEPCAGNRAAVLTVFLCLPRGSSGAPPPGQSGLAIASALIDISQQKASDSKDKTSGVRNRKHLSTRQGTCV
UniProt Q9WU60, residues 83-1428: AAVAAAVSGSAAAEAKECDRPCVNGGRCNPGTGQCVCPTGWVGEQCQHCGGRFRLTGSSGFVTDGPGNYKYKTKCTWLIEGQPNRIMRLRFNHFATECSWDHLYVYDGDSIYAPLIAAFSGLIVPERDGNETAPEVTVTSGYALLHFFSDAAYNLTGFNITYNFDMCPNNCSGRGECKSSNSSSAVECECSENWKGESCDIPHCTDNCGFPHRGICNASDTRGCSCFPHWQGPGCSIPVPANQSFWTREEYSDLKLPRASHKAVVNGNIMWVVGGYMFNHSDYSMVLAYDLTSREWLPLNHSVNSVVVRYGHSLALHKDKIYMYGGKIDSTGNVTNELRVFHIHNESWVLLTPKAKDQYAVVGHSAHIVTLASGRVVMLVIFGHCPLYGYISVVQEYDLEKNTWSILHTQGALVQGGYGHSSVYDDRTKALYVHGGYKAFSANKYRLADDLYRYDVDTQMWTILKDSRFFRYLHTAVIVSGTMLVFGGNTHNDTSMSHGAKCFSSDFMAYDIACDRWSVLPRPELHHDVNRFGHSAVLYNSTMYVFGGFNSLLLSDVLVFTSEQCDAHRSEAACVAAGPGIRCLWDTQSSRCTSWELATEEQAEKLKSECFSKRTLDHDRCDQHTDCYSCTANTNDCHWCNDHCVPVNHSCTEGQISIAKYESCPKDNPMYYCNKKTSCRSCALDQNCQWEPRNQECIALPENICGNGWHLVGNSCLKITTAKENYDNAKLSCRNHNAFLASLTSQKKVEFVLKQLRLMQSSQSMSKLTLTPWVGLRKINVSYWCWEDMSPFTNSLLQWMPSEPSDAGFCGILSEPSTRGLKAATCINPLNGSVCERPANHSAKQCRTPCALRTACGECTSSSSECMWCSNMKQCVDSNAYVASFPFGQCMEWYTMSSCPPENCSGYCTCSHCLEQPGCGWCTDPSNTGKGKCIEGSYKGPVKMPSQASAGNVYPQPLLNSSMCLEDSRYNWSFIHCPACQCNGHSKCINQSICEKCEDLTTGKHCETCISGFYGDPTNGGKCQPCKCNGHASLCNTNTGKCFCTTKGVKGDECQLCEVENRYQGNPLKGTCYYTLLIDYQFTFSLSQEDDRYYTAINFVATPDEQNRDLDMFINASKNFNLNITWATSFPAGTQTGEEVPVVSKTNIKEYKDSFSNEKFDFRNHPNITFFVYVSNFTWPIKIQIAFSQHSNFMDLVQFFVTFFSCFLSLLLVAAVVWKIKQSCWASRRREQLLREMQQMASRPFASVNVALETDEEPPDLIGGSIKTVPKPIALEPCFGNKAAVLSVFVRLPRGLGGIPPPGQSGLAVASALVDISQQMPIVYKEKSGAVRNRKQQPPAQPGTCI
UniProt P32245, residues 2-332: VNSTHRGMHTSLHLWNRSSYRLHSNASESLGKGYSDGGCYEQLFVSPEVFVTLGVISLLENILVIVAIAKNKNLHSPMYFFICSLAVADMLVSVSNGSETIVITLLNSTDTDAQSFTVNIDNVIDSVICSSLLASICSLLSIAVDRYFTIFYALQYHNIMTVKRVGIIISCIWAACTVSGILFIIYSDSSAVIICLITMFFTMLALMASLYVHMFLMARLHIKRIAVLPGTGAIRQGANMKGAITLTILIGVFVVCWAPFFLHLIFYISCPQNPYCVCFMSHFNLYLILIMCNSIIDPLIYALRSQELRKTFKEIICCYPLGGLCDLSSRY

T1: Mgrn1-Flag (wild-type), stable addback in NIH/3T3 (mouse) (UniProt Q9D074)
T1 sequence: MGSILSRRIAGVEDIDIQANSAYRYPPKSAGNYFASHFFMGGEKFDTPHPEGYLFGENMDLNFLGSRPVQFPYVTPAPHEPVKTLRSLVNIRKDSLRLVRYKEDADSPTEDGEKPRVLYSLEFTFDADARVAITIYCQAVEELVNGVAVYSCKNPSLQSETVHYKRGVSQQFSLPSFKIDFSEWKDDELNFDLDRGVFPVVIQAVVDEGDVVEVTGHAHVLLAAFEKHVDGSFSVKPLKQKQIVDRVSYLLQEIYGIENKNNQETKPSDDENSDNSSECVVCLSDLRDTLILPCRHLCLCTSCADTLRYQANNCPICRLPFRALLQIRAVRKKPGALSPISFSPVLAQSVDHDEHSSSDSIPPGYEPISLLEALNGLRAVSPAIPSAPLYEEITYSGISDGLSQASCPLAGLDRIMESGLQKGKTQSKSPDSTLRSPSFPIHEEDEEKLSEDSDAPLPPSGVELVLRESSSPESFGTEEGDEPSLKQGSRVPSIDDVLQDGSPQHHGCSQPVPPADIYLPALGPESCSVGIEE

T2: Mgrn1^R318E-Flag, in HEK293T (mouse) (UniProt Q9D074)
T2 sequence: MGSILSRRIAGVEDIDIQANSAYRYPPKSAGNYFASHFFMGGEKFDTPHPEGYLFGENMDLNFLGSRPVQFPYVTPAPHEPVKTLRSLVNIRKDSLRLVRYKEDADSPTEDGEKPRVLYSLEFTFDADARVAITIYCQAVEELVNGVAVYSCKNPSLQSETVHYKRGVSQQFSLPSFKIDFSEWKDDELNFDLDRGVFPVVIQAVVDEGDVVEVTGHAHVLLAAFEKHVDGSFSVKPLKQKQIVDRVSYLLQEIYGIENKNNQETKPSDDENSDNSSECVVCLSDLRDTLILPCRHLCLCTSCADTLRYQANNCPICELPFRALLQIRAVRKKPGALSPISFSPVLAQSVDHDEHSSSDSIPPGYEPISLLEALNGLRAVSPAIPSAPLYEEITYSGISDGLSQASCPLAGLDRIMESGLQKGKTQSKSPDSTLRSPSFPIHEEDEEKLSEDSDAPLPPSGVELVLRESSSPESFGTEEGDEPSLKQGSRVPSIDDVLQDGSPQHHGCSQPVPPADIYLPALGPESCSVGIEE

T3: Mgrn1-Flag (wild-type), in HEK293T (mouse) (UniProt Q9D074)
T3 sequence: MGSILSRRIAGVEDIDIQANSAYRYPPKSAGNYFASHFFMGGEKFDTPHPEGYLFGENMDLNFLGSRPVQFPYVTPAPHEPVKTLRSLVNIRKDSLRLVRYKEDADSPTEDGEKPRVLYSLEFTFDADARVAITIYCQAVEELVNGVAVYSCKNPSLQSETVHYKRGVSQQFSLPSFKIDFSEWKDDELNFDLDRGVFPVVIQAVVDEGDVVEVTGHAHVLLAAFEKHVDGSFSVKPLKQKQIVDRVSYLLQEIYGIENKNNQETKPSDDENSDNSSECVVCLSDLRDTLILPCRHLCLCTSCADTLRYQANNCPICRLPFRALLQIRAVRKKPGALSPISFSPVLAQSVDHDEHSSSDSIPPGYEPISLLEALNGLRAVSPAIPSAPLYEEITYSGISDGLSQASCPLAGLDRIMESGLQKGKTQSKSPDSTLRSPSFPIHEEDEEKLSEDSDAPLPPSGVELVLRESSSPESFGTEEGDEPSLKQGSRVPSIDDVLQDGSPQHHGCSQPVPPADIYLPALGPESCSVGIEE


Legend:
[1] = molecular target: T1, Mgrn1-Flag (wild-type), stable addback in NIH/3T3 (mouse); test: co-IP; Mgrn1−/−; Rnf157−/− NIH/3T3 cells stably expressing FLAG-tagged wild-type or truncated Mgrn1; immunoprecipitated with anti-FLAG M2 magnetic beads, blot for endogenous ATRN; ATRN signal normalised to FLAG-MGRN1
[2] = molecular target: T2, Mgrn1^R318E-Flag, in HEK293T (mouse); test: co-IP; HEK293T transfected with MC1R-Venus or MC4R-Venus and Mgrn1-Flag (wild-type or R318E); anti-FLAG beads pull down MGRN1, blot with anti-GFP antibody
[3] = molecular target: T3, Mgrn1-Flag (wild-type), in HEK293T (mouse); test: as above
[4] = molecular target: MEGF8-1D4 (UniProt Q7Z7M0); test: co-IP; HEK293T transiently transfected with 1D4-tagged MEGF8, Atrn or ATRNL1, FLAG-tagged Mgrn1 (wild-type or R318E) and HA-tagged Mosmo; immunoprecipitated with anti-1D4 beads, western blotting; washes up to 500 mM NaCl
[5] = molecular target: ATRNL1-1D4 (human) (UniProt Q5VV63); test: as above
[6] = molecular target: Atrn-1D4 (mouse) (UniProt Q9WU60); test: as above

Molecule	binding [2]	binding [3]	binding [5]	binding [6]	further results
endogenous ATRN (attractin) (from UniProt Q9WU60 83-1428)					binding [1]: binds
MC4R-mVenus (from UniProt P32245 2-332) (receptor)	binds	binds			
Mgrn1-Flag (wild-type), in HEK293T (enzyme, UniProt Q9D074-2 1-533) MGSILSRRIAGVEDIDIQANSAYRYPPKSAGNYFASHFFMGGEKFDTPHPEGYLFGENMDLNFLGSRPVQFPYVTPAPHEPVKTLRSLVNIRKDSLRLVRYKEDADSPTEDGEKPRVLYSLEFTFDADARVAITIYCQAVEELVNGVAVYSCKNPSLQSETVHYKRGVSQQFSLPSFKIDFSEWKDDELNFDLDRGVFPVVIQAVVDEGDVVEVTGHAHVLLAAFEKHVDGSFSVKPLKQKQIVDRVSYLLQEIYGIENKNNQETKPSDDENSDNSSECVVCLSDLRDTLILPCRHLCLCTSCADTLRYQANNCPICRLPFRALLQIRAVRKKPGALSPISFSPVLAQSVDHDEHSSSDSIPPGYEPISLLEALNGLRAVSPAIPSAPLYEEITYSGISDGLSQASCPLAGLDRIMESGLQKGKTQSKSPDSTLRSPSFPIHEEDEEKLSEDSDAPLPPSGVELVLRESSSPESFGTEEGDEPSLKQGSRVPSIDDVLQDGSPQHHGCSQPVPPADIYLPALGPESCSVGIEE			binds	binds	binding [4]: binds
MC1R-mVenus (receptor, UniProt Q01726 2-317) AVQGSQRRLLGSLNSTPTAIPQLGLAANQTGARCLEVSISDGLFLSLGLVSLVENALVVATIAKNRNLHSPMYCFICCLALSDLLVSGSNVLETAVILLLEAGALVARAAVLQQLDNVIDVITCSSMLSSLCFLGAIAVDRYISIFYALRYHSIVTLPRARRAVAAIWVASVVFSTLFIAYYDHVAVLLCLVVFFLAMLVLMAVLYVHMLARACQHAQGIARLHKRQRPVHQGFGLKGAVTLTILLGIFFLCWGPFFLHLTLIVLCPEHPTCGCIFKNFNLFLALIICNAIIDPLIYAFHSQELRRTLKEVLTCSW	binds	binds			
Mosmo-HA (protein, UniProt Q8C784 1-167) MDKLTIISGCLFLAADIFAIASIANPDWINTGESAGALTVGLVRQCQTIHGRDRTCIPPRLPPEWVTTLFFIIMGIISLTVTCGLLVASHWRREATKYARWIAFTGMILFCMAALIFPIGFYINEVGGQPYKLPNNTVVGSSYVLFVLSIFFTIVGLLFAGKVCLPG			no binding	no binding	
